Measurements from PubChem BioAssay AID1030 (National Center for Advancing Translational Sciences (NCATS), 2008).
Hit rate of the full screen: of about 220,000 compounds, about 16,000 (7.3%) were called active. Inconclusive means that the source gave no clear call. Such entries were picked first, then a sample of the others. The call rests on the fitted dose curve; in most records, active means well fitted inhibition curve with a large enough effect (not every such curve was filed as active); inconclusive means small, poorly fitted or top-dose-only effect, or another doubt; inactive means no such curve, though single readings can be large or run the other way. Potencies of inconclusive entries are left out as doubtful fits.

Target: Aldehyde dehydrogenase 1A1 (Homo sapiens) (UniProt P00352)
Experiment: qHTS Assay for Inhibitors of Aldehyde Dehydrogenase 1 (ALDH1A1)
Settings: Purified ALDH1A1, NADH fluorescence, propionaldehyde substrate; series mostly up to 75.3 µM
Potency means the concentration at half of the fitted maximal effect; tags describe the fitted curve by direction and shape.

Sequence of UniProt P00352 (P00352 whole entry, looked up): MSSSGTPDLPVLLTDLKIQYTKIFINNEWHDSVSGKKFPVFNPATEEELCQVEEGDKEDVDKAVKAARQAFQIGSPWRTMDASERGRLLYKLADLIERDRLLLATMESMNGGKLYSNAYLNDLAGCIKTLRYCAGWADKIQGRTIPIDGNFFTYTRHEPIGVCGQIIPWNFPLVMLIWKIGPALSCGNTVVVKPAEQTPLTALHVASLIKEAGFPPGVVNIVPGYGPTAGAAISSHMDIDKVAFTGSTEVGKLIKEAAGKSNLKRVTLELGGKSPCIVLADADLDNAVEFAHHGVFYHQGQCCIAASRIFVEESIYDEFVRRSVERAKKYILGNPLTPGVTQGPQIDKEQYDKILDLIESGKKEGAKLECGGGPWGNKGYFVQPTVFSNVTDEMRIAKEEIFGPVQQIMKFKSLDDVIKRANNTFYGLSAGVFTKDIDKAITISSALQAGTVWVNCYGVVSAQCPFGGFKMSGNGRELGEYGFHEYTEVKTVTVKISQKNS

Row | SMILES | Potency
1 | COc1ccc2c(c1OC)C(=O)OC2Nc1nc(-c2cc3ccccc3oc2=O)cs1 (configuration not stated) | inconclusive [inhibitor, single point]
2 | CCCCCCN(C(=O)CCCCCN1C(=O)NC(c2ccccc2-c2ccccc2)C(C(=O)OCc2ccccc2)=C1C)C(C(=O)NCCCC)c1ccc(OCC(=O)OC)c(C(=O)OC)c1 (configuration not stated) | active: 35.5 µM
3 | C=CCNc1cnn(-c2ccc(C)cc2)c(=O)c1Sc1ccc(C)cc1 | active: 10 µM
4 | O=C(CCNc1ccc(Cl)c(C(F)(F)F)c1)c1ccco1 | active: 8.91 µM
5 | O=C(COC(=O)C1CC(=O)N(Cc2ccccc2)C1)Nc1ccc2c(c1)OCO2 (configuration not stated) | inconclusive [inhibitor, single point]
6 | CCCC(c1nnnn1CCOC)N1CCN(C(=O)c2ccco2)CC1 (configuration not stated) | inconclusive [inhibitor, single point]
7 | CC(=O)Nc1ccc(S(=O)(=O)/N=C2\C(=O)c3ccccc3C([O-])=C2n2cc[n+](-c3ccccn3)c2)cc1 | inconclusive [inhibitor, partial curve]
8 | CCN(CCCNC(=O)C1CCN(S(=O)(=O)c2cnc[nH]2)CC1)c1cccc(C)c1 | inconclusive [inhibitor, partial curve]
9 | Cc1ccc(-c2noc(C3CCN(S(=O)(=O)c4ccc5c(c4)OCCO5)CC3)n2)o1 | active: 28.2 µM
10 | O=C(/C=C/c1ccc2c(c1)OCO2)Nc1cccnc1 | inconclusive [inhibitor, single point]
11 | CN(C)c1ccc(NC(=O)c2ccc3nsnc3c2)cc1 | inconclusive [inhibitor, partial curve]
12 | CCOC(=O)c1c(-c2cccc(N)c2)cn2ccccc12 | inconclusive [inhibitor, partial curve]
13 | CN1C(=O)/C(=C/c2cccc(Cl)c2)Sc2ccc(C(=O)NCc3cccnc3)cc21 | inconclusive [inhibitor, single point]
14 | CCC(=O)Oc1ccc(C2N(C(=O)CC)CCN2S(=O)(=O)c2ccc(C)cc2)cc1OC (configuration not stated) | inconclusive [inhibitor, partial curve]
15 | CCOC(=O)C(C)Oc1ccc2c(-c3cccc([N+](=O)[O-])c3)cc(=O)oc2c1 (configuration not stated) | inconclusive [inhibitor, partial curve]
16 | CCCCCCn1c(CN2CCC(C)CC2)nc2c1c(=O)n(C)c(=O)n2C | inconclusive [inhibitor, full curve]
17 | NC(N)=NCC(O)CN(c1ccccc1)c1ccccc1 (configuration not stated) | inactive
18 | CCOC(=O)COc1cc(OCC(=O)OCC)c2c(=O)cc(-c3ccccc3)oc2c1 | inconclusive [inhibitor, single point]
19 | COc1cc(/C=C(\C#N)C(=O)NCc2cccs2)ccc1O | inconclusive [inhibitor, single point]
20 | S=C(NCC1CCCCC1)Nc1ccc(Oc2ccccc2)cc1 | inconclusive [inhibitor, partial curve]
21 | CCOC(=O)c1nc(C)sc1-c1ccnn1S(=O)(=O)c1ccccc1C(F)(F)F | inconclusive [inhibitor, single point]

Row | SMILES | Potency
22 | O=C(Nc1cc(Cl)cc(Cl)c1)C1CCC(=O)N1Cc1ccccc1Cl (configuration not stated) | inactive
23 | CN1C(=S)SC(C)(NO)C1(C)C (configuration not stated) | active: 0.794 µM
24 | O=C(CSc1ccc(Cl)cc1)Nc1cccc(-c2nc3ccccc3[nH]2)c1 | inconclusive [inhibitor, single point]
25 | O=C(NCc1ccc2c(c1)OCO2)c1ccc2c(c1)C(=O)N(CC1CCCO1)C2=O (configuration not stated) | active: 1.58 µM
26 | O=C1/C(=C/Nc2ccc3c(c2)OCO3)CCc2ccccc21 | active: 10 µM
27 | CC(C)CCn1c(CN2CCN(Cc3ccccc3)CC2)nc2c1c(=O)[nH]c(=O)n2C | inconclusive [inhibitor, single point]
28 | COc1ccc(-c2cc(C(=O)N3CC4(C)CC3CC(C)(C)C4)no2)cc1OC (configuration not stated) | inactive
29 | c1ccc(CNC23CC4CC(CC(C4)C2)C3)nc1 | inconclusive [inhibitor, partial curve, poor fit]
30 | CCN(CC)S(=O)(=O)c1ccc(S(=O)(=O)Nc2ccc3c(c2)oc2ccccc23)cc1 | inconclusive [inhibitor, partial curve]
31 | CCOc1ccc(N/C(=C(/C(Cl)=C(Cl)Cl)[N+](=O)[O-])n2cncn2)cc1 | inconclusive [inhibitor, partial curve]
32 | CCc1c(C)c(C#N)c2nc3ccccc3n2c1NCCN(C)C | inconclusive [inhibitor, single point]
33 | CCCCNC(=S)N1CCN(Cc2ccc3c(c2)OCO3)CC1 | inconclusive [inhibitor, partial curve]
34 | CC(C)OCC1CC(CC(=O)Nc2ccc([N+](=O)[O-])cc2)C(=O)O1 (configuration not stated) | inactive
35 | O=C(c1ccc(S(=O)(=O)N2CCCCCC2)cc1)N(c1ccccn1)C1CCCCC1 | inconclusive [inhibitor, partial curve, poor fit]
36 | CSCCC(NC(=O)/C(=C/c1ccc2c(c1)OCO2)NC(=O)c1cccc([N+](=O)[O-])c1)C(=O)O (configuration not stated) | inconclusive [inhibitor, single point]
37 | O=C(NCc1ccco1)C1(S(=O)(=O)c2ccc(Cl)cc2)CC1 | active: 17.8 µM
38 | Cc1cc(C)nc(NS(=O)(=O)c2ccc(NC(=O)CN3C(=O)C4CC=CCC4C3=O)cc2)n1 (configuration not stated) | active: 31.6 µM
39 | Cn1c(-c2sc3ccccc3c2Cl)n[nH]c1=S | inconclusive [inhibitor, single point]
40 | CCc1nn2c(N3CCOCC3)cc(C)nc2c1-c1ccc(F)cc1 | inconclusive [inhibitor, partial curve]
41 | O=[N+]([O-])c1ccc(OCCOc2ccccc2/C=N/n2cnnc2)cc1 | inactive
42 | COc1ccc(-n2c(Cc3cccn3C)nnc2SCC(=O)Nc2cccc(F)c2)cc1 | active: 12.6 µM
